# Test results: the supplement of paper PMC10037445
# “And” between values parts separate entries of the source, which are not always exact repeats. Equal values may be shown once. The full ranking holds about 2,900 compounds; the median of “IRF Lucia reporter activity, fold change vs agonist alone” is about 0.9, and the highest 2% start at about 2.8. The list shows a part of the results.
# What was measured:
# [1] = test system: RAW-Dual; experiment: IRF Lucia reporter activity, fold change vs agonist alone; cytotoxicity flag (confluency mask): not cytotoxic; higher = enhanced IRF activity
# How it was run: (§1)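 Library stock was pin-tooled at 50 nL into 384-well plates of RAW-Dual macrophages (50,000 cells/well, DMEM), followed 1 h later by a PRR agonist, and the cells were kept at 37 °C, 5% CO2. Supernatant collected after 20 hours was read for IRF by QuantiLuc luminescence and for NF-κB by QuantiBlue absorbance at 620 nm. Reporter activity is fold change over agonist-alone wells, and a well counted as cytotoxic when its IncuCyte confluency was below 70% of agonist controls in both mask sets.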
# [2] = test system: RAW-Dual; experiment: IRF Lucia reporter activity, fold change vs agonist alone; higher = enhanced IRF activity; conditions: library stock concentration (final ~1000-fold dilution): 10 mM, agonist: MPLA (TLR4) […]
# How it was run: as §1
# [3] = test system: RAW-Dual; experiment: IRF Lucia reporter activity, fold change vs agonist alone; cytotoxicity flag (confluency mask): cytotoxic (confluency <70% of control); higher = enhanced IRF activity
# How it was run: as §1
# [4] = agonist: 3'3'-cGAMP (STING) 10 ug/mL
# [5] = cytotoxicity flag (confluency mask): not cytotoxic
# [6] = cytotoxicity flag (confluency mask): cytotoxic (confluency <70% of control)
smiles,measurement,setting,value
O=C(NCCCNc1nc(Nc2cccc(CN3CCOCC3)c2)ncc1C1CC1)C1CCC1 (library stock concentration (final ~1000-fold dilution): 10 mM),IRF Lucia reporter activity,[1]; [4],0.0197 and 0.0115
same,IRF Lucia reporter activity,[1]; agonist: LPS (TLR4) 0.1 ug/mL,0.0224 and 0.0156
CC12CCC(CC1)C(C)(C)O2 (library stock concentration (final ~1000-fold dilution): 10 mM),IRF Lucia reporter activity,[1]; [4],1.15
same,IRF Lucia reporter activity,[1]; agonist: LPS (TLR4) 0.1 ug/mL,1.21
CC12CCC(CC1)C(C)(C)O2,IRF Lucia reporter activity,[2]; [5],1.16
CN1CCN(CCOc2cc(OC3CCOCC3)c3c(Nc4c(Cl)ccc5c4OCO5)ncnc3c2)CC1 (library stock concentration (final ~1000-fold dilution): 10 mM),IRF Lucia reporter activity,[3]; [4],0.331
same,IRF Lucia reporter activity,[3]; agonist: LPS (TLR4) 0.1 ug/mL,0.204
CN1CCN(CCOc2cc(OC3CCOCC3)c3c(Nc4c(Cl)ccc5c4OCO5)ncnc3c2)CC1,IRF Lucia reporter activity,[2]; [6],0.802
COc1c(O)c(C)cc2c1C(=O)c1c(O)cccc1C2=O (library stock concentration (final ~1000-fold dilution): 10 mM),IRF Lucia reporter activity,[1]; [4],1.11
same,IRF Lucia reporter activity,[1]; agonist: LPS (TLR4) 0.1 ug/mL,0.872
O=C(NCC1CN(c2ccc(N3CCOCC3=O)cc2)C(=O)O1)c1ccc(Cl)s1 (stereo not drawn) (library stock concentration (final ~1000-fold dilution): 10 mM),IRF Lucia reporter activity,[1]; [4],1.05
same,IRF Lucia reporter activity,[1]; agonist: LPS (TLR4) 0.1 ug/mL,1.16
O=C(NCC1CN(c2ccc(N3CCOCC3=O)cc2)C(=O)O1)c1ccc(Cl)s1 (stereo not drawn),IRF Lucia reporter activity,[2]; [5],1.07
Nc1ccc(S(=O)(=O)Nc2ccnn2-c2ccccc2)cc1,IRF Lucia reporter activity,[2]; [5],0.994
Nc1ccc(S(=O)(=O)Nc2ccnn2-c2ccccc2)cc1 (library stock concentration (final ~1000-fold dilution): 10 mM),IRF Lucia reporter activity,[1]; [4],1.09
same,IRF Lucia reporter activity,[1]; agonist: LPS (TLR4) 0.1 ug/mL,0.99
Cc1ccc(NC(=O)c2ccc(CN3CCC(N(C)C)C3)c(C(F)(F)F)c2)cc1Nc1nccc(-c2cncnc2)n1 (stereo not drawn),IRF Lucia reporter activity,[2]; [6],0.195
Cc1ccc(NC(=O)c2ccc(CN3CCC(N(C)C)C3)c(C(F)(F)F)c2)cc1Nc1nccc(-c2cncnc2)n1 (stereo not drawn) (library stock concentration (final ~1000-fold dilution): 10 mM),IRF Lucia reporter activity,[3]; [4],0.138
same,IRF Lucia reporter activity,[3]; agonist: LPS (TLR4) 0.1 ug/mL,0.0236
CC1(Cn2ccnn2)C(C(=O)O)N2C(=O)CC2S1(=O)=O (stereo not drawn) (library stock concentration (final ~1000-fold dilution): 10 mM),IRF Lucia reporter activity,[1]; [4],0.987
same,IRF Lucia reporter activity,[1]; agonist: LPS (TLR4) 0.1 ug/mL,1.04
CC1(Cn2ccnn2)C(C(=O)O)N2C(=O)CC2S1(=O)=O (stereo not drawn),IRF Lucia reporter activity,[2]; [5],0.989
CCOCC(O)COc1ccc(NC(=O)CC[S+](C)C)cc1 (stereo not drawn),IRF Lucia reporter activity,[2]; [5],0.715
CCOCC(O)COc1ccc(NC(=O)CC[S+](C)C)cc1 (stereo not drawn) (library stock concentration (final ~1000-fold dilution): 10 mM),IRF Lucia reporter activity,[1]; [4],0.807
same,IRF Lucia reporter activity,[1]; agonist: LPS (TLR4) 0.1 ug/mL,0.648
O=C(CCCCCCNC(=O)c1cnc(N(c2ccccc2)c2ccccc2Cl)nc1)NO (library stock concentration (final ~1000-fold dilution): 10 mM),IRF Lucia reporter activity,[3]; [4],0.0412
same,IRF Lucia reporter activity,[3]; agonist: LPS (TLR4) 0.1 ug/mL,0.506
COc1cc2nc(N3CCCN(C)CC3)nc(NC3CCN(Cc4ccccc4)CC3)c2cc1OC.Cl.Cl.Cl (library stock concentration (final ~1000-fold dilution): 10 mM),IRF Lucia reporter activity,[3]; [4],0.0149
same,IRF Lucia reporter activity,[3]; agonist: LPS (TLR4) 0.1 ug/mL,0.0762
COc1cc(O)c2c(=O)cc(-c3ccc(O)c(O)c3)oc2c1 (library stock concentration (final ~1000-fold dilution): 10 mM),IRF Lucia reporter activity,[1]; [4],0.031
same,IRF Lucia reporter activity,[1]; agonist: LPS (TLR4) 0.1 ug/mL,0.362
Br.Cc1ccc(C(=O)Cn2c3c(sc2=N)CCCC3)cc1 (library stock concentration (final ~1000-fold dilution): 10 mM),IRF Lucia reporter activity,[1]; [4],0.943
same,IRF Lucia reporter activity,[1]; agonist: LPS (TLR4) 0.1 ug/mL,0.956
Br.Cc1ccc(C(=O)Cn2c3c(sc2=N)CCCC3)cc1,IRF Lucia reporter activity,[2]; [5],1.08
COc1cc2c3cc1Oc1c(OC)c(OC)cc4c1C(Cc1ccc(O)c(c1)Oc1ccc(cc1)CC3N(C)CC2)N(C)CC4 (stereo not drawn) (library stock concentration (final ~1000-fold dilution): 10 mM),IRF Lucia reporter activity,[1]; [4],0.225
same,IRF Lucia reporter activity,[1]; agonist: LPS (TLR4) 0.1 ug/mL,1.17
CCc1c(C)[nH]c2c1C(=O)C(CN1CCOCC1)CC2.Cl (stereo not drawn),IRF Lucia reporter activity,[2]; [5],1.06
CCc1c(C)[nH]c2c1C(=O)C(CN1CCOCC1)CC2.Cl (stereo not drawn) (library stock concentration (final ~1000-fold dilution): 10 mM),IRF Lucia reporter activity,[1]; [4],1.04
same,IRF Lucia reporter activity,[1]; agonist: LPS (TLR4) 0.1 ug/mL,1.31
CCC(=O)c1c(O)cc(O)cc1O,IRF Lucia reporter activity,[2]; [5],0.971
CCC(=O)c1c(O)cc(O)cc1O (library stock concentration (final ~1000-fold dilution): 10 mM),IRF Lucia reporter activity,[1]; [4],0.978
same,IRF Lucia reporter activity,[1]; agonist: LPS (TLR4) 0.1 ug/mL,1.06
C=CC(=O)Nc1ccc2ncnc(Nc3cccc(Br)c3)c2c1,IRF Lucia reporter activity,[2]; [5],0.0844
C=CC(=O)Nc1ccc2ncnc(Nc3cccc(Br)c3)c2c1 (library stock concentration (final ~1000-fold dilution): 10 mM),IRF Lucia reporter activity,[1]; [4],0.032
same,IRF Lucia reporter activity,[1]; agonist: LPS (TLR4) 0.1 ug/mL,0.11
O=c1cc[nH]c(=S)[nH]1 (library stock concentration (final ~1000-fold dilution): 10 mM),IRF Lucia reporter activity,[1]; [4],1.04
same,IRF Lucia reporter activity,[1]; agonist: LPS (TLR4) 0.1 ug/mL,0.848
O=c1cc[nH]c(=S)[nH]1,IRF Lucia reporter activity,[2]; [5],1
